Experimental data reported in the supplement of paper PMC11876631.
± gives the standard deviation of the averaged measurements. Laboratory Escherichia coli strains with one amino-acid change in an essential protein, pooled on minimal glucose agar with carbenicillin or gentamicin at twice the control MIC (plus kanamycin and chloramphenicol for the plasmids), 48 h. Fold change of barcode share against drug-free plates; higher = less susceptible. Active = above 20 in both replicates (the paper's putatively resistant). '<' = one read or none on drug, '>' = one read or none on a drug-free plate. Shares are relative, so most strains fall below 1 when a few take over. Listed are strains with at least 15 reads on both drug-free plates, and hits; most hits rest on fewer reference reads. Replicate rank correlation about 0.5. Edits are read from barcodes.

B1: metL V462W (protein)
chain: MSVIAQAGAKGRQLHKFGGSSLADVKCYLRVAGIMAEYSQPDDMMVVSAAGSTTNQLINWLKLSQTDRLSAHQVQQTLRRYQCDLISGLLPAEEADSLISAFVSDLERLAALLDSGINDAVYAEVVGHGEVWSARLMSAVLNQQGLPAAWLDAREFLRAERAAQPQVDEGLSYPLLQQLLVQHPGKRLVVTGFISRNNAGETVLLGRNGSDYSATQIGALAGVSRVTIWSDVAGVYSADPRKVKDACLLPLLRLDEASELARLAAPVLHARTLQPVSGSEIDLQLRCSYTPDQGSTRIERVLASGTGARIVTSHDDVCLIEFQVPASQDFKLAHKEIDQILKRAQVRPLAVGVHNDRQLLQFCYTSEVADSALKILDEAGLPGELRLRQGLALVAMVGAGVTRNPLHCHRFWQQLKGQPVEFTWQSDDGISLVAVLRTGPTESLIQGLHQSVFRAEKRIGLWLFGKGNIGSRWLELFAREQSTLSARTGFEFVLAGVVDSRRSLLSYDGLDASRALAFFNDEAVEQDEESLFLWMRAHPYDDLVVLDVTASQQLADQYLDFASHGFHVISANKLAGASDSNKYRQIHDAFEKTGRHWLYNATVGAGLPINHTVRDLIDSGDTILSISGIFSGTLSWLFLQFDGSVPFTELVDQAWQQGLTEPDPRDDLSGKDVMRKLVILAREAGYNIEPDQVRVESLVPAHCEGGSIDHFFENGDELNEQMVQRLEAAREMGLVLRYVARFDANGKARVGVEAVREDHPLASLLPCDNVFAIESRWYRDNPLVIRGPGAGRDVTAGAIQSDINRLAQLL
B2: metL V462Q (protein)
chain: MSVIAQAGAKGRQLHKFGGSSLADVKCYLRVAGIMAEYSQPDDMMVVSAAGSTTNQLINWLKLSQTDRLSAHQVQQTLRRYQCDLISGLLPAEEADSLISAFVSDLERLAALLDSGINDAVYAEVVGHGEVWSARLMSAVLNQQGLPAAWLDAREFLRAERAAQPQVDEGLSYPLLQQLLVQHPGKRLVVTGFISRNNAGETVLLGRNGSDYSATQIGALAGVSRVTIWSDVAGVYSADPRKVKDACLLPLLRLDEASELARLAAPVLHARTLQPVSGSEIDLQLRCSYTPDQGSTRIERVLASGTGARIVTSHDDVCLIEFQVPASQDFKLAHKEIDQILKRAQVRPLAVGVHNDRQLLQFCYTSEVADSALKILDEAGLPGELRLRQGLALVAMVGAGVTRNPLHCHRFWQQLKGQPVEFTWQSDDGISLVAVLRTGPTESLIQGLHQSVFRAEKRIGLQLFGKGNIGSRWLELFAREQSTLSARTGFEFVLAGVVDSRRSLLSYDGLDASRALAFFNDEAVEQDEESLFLWMRAHPYDDLVVLDVTASQQLADQYLDFASHGFHVISANKLAGASDSNKYRQIHDAFEKTGRHWLYNATVGAGLPINHTVRDLIDSGDTILSISGIFSGTLSWLFLQFDGSVPFTELVDQAWQQGLTEPDPRDDLSGKDVMRKLVILAREAGYNIEPDQVRVESLVPAHCEGGSIDHFFENGDELNEQMVQRLEAAREMGLVLRYVARFDANGKARVGVEAVREDHPLASLLPCDNVFAIESRWYRDNPLVIRGPGAGRDVTAGAIQSDINRLAQLL
B3: metL V462D (protein)
chain: MSVIAQAGAKGRQLHKFGGSSLADVKCYLRVAGIMAEYSQPDDMMVVSAAGSTTNQLINWLKLSQTDRLSAHQVQQTLRRYQCDLISGLLPAEEADSLISAFVSDLERLAALLDSGINDAVYAEVVGHGEVWSARLMSAVLNQQGLPAAWLDAREFLRAERAAQPQVDEGLSYPLLQQLLVQHPGKRLVVTGFISRNNAGETVLLGRNGSDYSATQIGALAGVSRVTIWSDVAGVYSADPRKVKDACLLPLLRLDEASELARLAAPVLHARTLQPVSGSEIDLQLRCSYTPDQGSTRIERVLASGTGARIVTSHDDVCLIEFQVPASQDFKLAHKEIDQILKRAQVRPLAVGVHNDRQLLQFCYTSEVADSALKILDEAGLPGELRLRQGLALVAMVGAGVTRNPLHCHRFWQQLKGQPVEFTWQSDDGISLVAVLRTGPTESLIQGLHQSVFRAEKRIGLDLFGKGNIGSRWLELFAREQSTLSARTGFEFVLAGVVDSRRSLLSYDGLDASRALAFFNDEAVEQDEESLFLWMRAHPYDDLVVLDVTASQQLADQYLDFASHGFHVISANKLAGASDSNKYRQIHDAFEKTGRHWLYNATVGAGLPINHTVRDLIDSGDTILSISGIFSGTLSWLFLQFDGSVPFTELVDQAWQQGLTEPDPRDDLSGKDVMRKLVILAREAGYNIEPDQVRVESLVPAHCEGGSIDHFFENGDELNEQMVQRLEAAREMGLVLRYVARFDANGKARVGVEAVREDHPLASLLPCDNVFAIESRWYRDNPLVIRGPGAGRDVTAGAIQSDINRLAQLL
B4: metL V462P (protein)
chain: MSVIAQAGAKGRQLHKFGGSSLADVKCYLRVAGIMAEYSQPDDMMVVSAAGSTTNQLINWLKLSQTDRLSAHQVQQTLRRYQCDLISGLLPAEEADSLISAFVSDLERLAALLDSGINDAVYAEVVGHGEVWSARLMSAVLNQQGLPAAWLDAREFLRAERAAQPQVDEGLSYPLLQQLLVQHPGKRLVVTGFISRNNAGETVLLGRNGSDYSATQIGALAGVSRVTIWSDVAGVYSADPRKVKDACLLPLLRLDEASELARLAAPVLHARTLQPVSGSEIDLQLRCSYTPDQGSTRIERVLASGTGARIVTSHDDVCLIEFQVPASQDFKLAHKEIDQILKRAQVRPLAVGVHNDRQLLQFCYTSEVADSALKILDEAGLPGELRLRQGLALVAMVGAGVTRNPLHCHRFWQQLKGQPVEFTWQSDDGISLVAVLRTGPTESLIQGLHQSVFRAEKRIGLPLFGKGNIGSRWLELFAREQSTLSARTGFEFVLAGVVDSRRSLLSYDGLDASRALAFFNDEAVEQDEESLFLWMRAHPYDDLVVLDVTASQQLADQYLDFASHGFHVISANKLAGASDSNKYRQIHDAFEKTGRHWLYNATVGAGLPINHTVRDLIDSGDTILSISGIFSGTLSWLFLQFDGSVPFTELVDQAWQQGLTEPDPRDDLSGKDVMRKLVILAREAGYNIEPDQVRVESLVPAHCEGGSIDHFFENGDELNEQMVQRLEAAREMGLVLRYVARFDANGKARVGVEAVREDHPLASLLPCDNVFAIESRWYRDNPLVIRGPGAGRDVTAGAIQSDINRLAQLL

Target: Escherichia coli (laboratory strain)
Assay: barcode share on antibiotic plates over drug-free plates; higher = less susceptible
Description: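 A pool of E. coli strains, each edited to carry one amino-acid change in an essential protein, was grown for 48 h on minimal glucose agar with or without antibiotic; strain barcodes were sequenced; mean of two replicates.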

[1] = antibiotic: carbenicillin, 2× MIC (3.1 µg/mL)
[2] = antibiotic: gentamicin, 2× MIC (MIC 0.45 µg/mL)

| Protein | fold change of barcode share [1] | fold change of barcode share [2] |
| --- | --- | --- |
| B1 | 0.535 ± 0.0089 | 0.00855 ± 0.00013 |
| B2 | 0.633 ± 0.18 | 0.0106 ± 0.002 |
| B3 | 0.708 ± 0.2 | 0.0117 ± 0.0094 |
| B4 | 0.615 ± 0.11 | 0.0079 ± 0.00097 |
